# Data: the RNAGym collection of RNA variant scans (doi:10.7554/elife.90254)
# The source gives no read counts; variants with many changes may rest on few reads.
# B1: LINE1-mini (parent)
# chain: GGCAGAGCUCAACACAGCGUGGCAAAGUGGCUGUGGCUAGACUGCC
# Variants of: B1
# Assay: self-cleavage, relative activity (ratio to wild type); higher = more cleavage; in vitro, sequencing; the parent is a self-cleaving ribozyme
row,Variant,self-cleavage
1,G35U C37U G40U C42A C45U,0.03
2,G33A G44C C46G,0.06
3,G35U C37G U38A,0.33
4,G33A G35A U38C,0.04
5,G36U A39C G44C,0.07
6,U34C C42A U43C,0.09
7,G33U U34C G44U,0.03
8,U32A G33C C42A,0.04
9,G30U G33U C37U A41G,0.12
10,U34C C42G C45A,0.01
11,G33C G35U U38A C46U,0.02
12,G33U G35U U43A,0.09
13,G30U U32C C37U A41U,0.07
14,G30U C37G A41C,0.02
15,G36C U38A G40A,0.02
16,G35U C42U G44U C46U,0
17,G36C C37U C45U,0.04
18,C31A U43C C45A,0.04
19,C31U C37U U43G C46G,0.06
20,G30U U32G G44U,0.22
21,C31G U38G C45A,0.02
22,U34G C37G C46U,0.01
23,U34C G36C A41U,0.07
24,G35C G36U U38C,0.02

row,Variant,self-cleavage
1,U32G A41U G44A,0.05
2,G35U U38G A39U C45U,0.07
3,C31U U32G C46U,0.03
4,U34G A41U C42U,0.01
5,G33C C37A U43A,0.03
6,U34G C37U C46A,0.02
7,G33A G40A C45A,0.05
8,G35C A39G C42A U43G,0.09
9,G36C C42U C45G,0.02
10,C31G G36A C45A,0.02
11,G33U C42A U43G G44A,0.06
12,G30U C42A G44C,0.03
13,U34G U38C U43G,0.04
14,C31U U34A G36U,0.01
15,C31A G35C A41U,0.19
16,U32A U34C A39G U43A C45U,0.05
17,C31A C42A C46A,0.01
18,C31U U38A A41U U43A G44C,0.01
19,G33U U43C C45U,0.05
20,G35C G36U A41U,0.26
21,G35A C37U C46G,0.01
22,G36C C37U G44A,0.02
23,C31G U34C U38A,0.05
24,G33U G35C G40C,0.01

row,Variant,self-cleavage
1,G33U C37A A39U U43A G44A,0.03
2,C31U G33C C37G,0.09
3,C31G A41C G44A,0.05
4,G33U A41C C45A,0.01
5,G33U G35U G36C C46A,0.12
6,G33C C37U G40A,0.02
7,C31A G33C C37U,0.16
8,G30U G33U G36A C45A,0.02
9,U32A G33A A41U G44A,0.06
10,G33U G35C G36C,0.04
11,G30U C42U U43G,0.04
12,C31U C37U C46A,0.02
13,C31U G33C G35A C37G A39U A41U,0.26
14,G30U G35U C45G,0.05
15,G33A G36U G44A,0.1
16,G30U U32G G35A G44A,0.04
17,C31G G33U U34A G44U,0.02
18,U34A C37A U43G,0
19,U34C G35U C45U,0.03
20,U34G G36A C46U,0.03
21,U32A G36U G40U C46A,0.18
22,G35C A41G G44U,0.03
23,U34G G36U C45U,0.05
24,U32G G35A U38A G44A,0.06

row,Variant,self-cleavage
1,G36A A41C U43G,0.02
2,C31A C42U C46G,0.02
3,G33U G40C C42U,0.11
4,G33U G36A C46A,0.04
5,C31G A39U G40U,0.07
6,C31G C37A U43A,0.07
7,G33U G35U A39C,0.06
8,G33U G35U C46A,0.01
9,U32G C42G C46A,0.18
10,U34A C37A A39G,0.11
11,G36A C37G C42U,0.07
12,G33C A39C C46U,0.04
13,U32G G36C C46G,0.22
14,U34G U38G G40C G44A,0.07
15,U34C C37U A41U,0.04
16,G33C G36U A41U,0
17,U32C G35U C37U,0.05
18,C31A G33A C45U,0.07
19,G30U G33U A39U,0.15
20,G33U A39C C46G,0.09
21,C31G C42U U43A,0.03
22,C31G U38C G40C,0.03
23,G35C U43G C45A,0.05
24,G33C G35C C37G,0.02

row,Variant,self-cleavage
1,G33A A39C C45G,0.02
2,G36A C37U U38C C42G,0.01
3,G33U U38G C42U C46U,0.03
4,G33C U38G G44U,0.05
5,G36C U43C G44C,0.1
6,U32C G40U C46U,0.06
7,U32C G40U C46G,0.08
8,G35U G36C C42G,0.05
9,G30U G40U C45A,0.09
10,U32C G33U U43A,0.06
11,G33C G40U C45A,0.03
12,U32G A41G C46A,0.03
13,G36C A39G A41G C46G,0.01
14,U32A A41U C46U,0.04
15,U32G G35A G44A,0.03
16,G33A C45G C46G,0.05
17,C31G G35A C45A,0.12
18,C31A G33U C45A,0.12
19,U34C G36U C45U,0.05
20,C31U G44A C45A,0.02
21,C31U U34G U38G,0.02
22,G35C G44C C45G,0.01
23,G35U C37A A41G,0.05
24,G35U G36U C46U,0.04

row,Variant,self-cleavage
1,G33U A39C C42G,0.05
2,U32C G33A A39G C45U,0.08
3,G33C A39C G44U,0.04
4,C31U G36C C46G,0.07
5,C31U A39U C45A,0.02
6,G33C U38C G40C G44A,0.01
7,C31G G36U U38A,0.01
8,C31A G35C A39C,0.02
9,G36A G44U C46A,0
10,U32C U34A G44C C45U,0.04
11,G36C A39C C45A,0.04
12,C31G G33U G35A G40C G44U C45A,0.01
13,C31A G35U C42A,0.03
14,C31A U34A A41G,0.07
15,G33A U38C A39U,0.02
16,G35U C45G C46G,0.03
17,C31A C37G U38A,0.04
18,C31U U38A C46U,0.02
19,G36C A39U G40U,0.15
20,G35C A39G A41C,0.04
21,C31A A41G U43A,0.02
22,C31U G36A G44U,0.09
23,C31A U34G A39G C45A C46U,0.01
24,G33A U43C C45U,0.12

row,Variant,self-cleavage
1,C31A C37A G40U,0.08
2,C31G U34G C45U,0.06
3,U34G C37G C45A,0.03
4,G35C C37U G44C,0.04
5,U34C C37U U38C C45U,0.04
6,U32C A41U U43G C45U,0.03
7,C31A G44A C46G,0.11
8,U34C C37U G40U,0.01
9,C31G U34G G36C,0.01
10,C31A A39C G40C,0.08
11,C31A A39C G40A,0.15
12,G35A G36A C46U,0.12
13,C31G G33A G36A,0.1
14,G30U C31A A39U,0.05
15,G33U C37A U43C,0.04
16,C31G U38A A39C G40A C46A,0
17,U32G G44U C46U,0.02
18,C31A U32G G35C,0.11
19,U32A A39U A41U,0.02
20,U32G G33U A41U,0.05
21,G30U C31U G36C U43G,0.06
22,G33C U38G C45G,0.03
23,G35U U38C C46U,0.2
